Measured values from the supplement of paper PMC10369915.
This is one part of the list. Cut-off read from the data, not from the text of the source: active = 3.2 or more and inactive = the rest. The signal is at background level for most entries.

Tests used:
Assay in all cases: enrichment score (SH2-bound / input frequency) (ratio); bacterial display of known human phosphotyrosine sites (pTyr-Var adds point mutants) read by sequencing; higher = stronger binding; tyrosines were phosphorylated by kinases first
Conditions in all cases: peptide library: pTyr-Var
SHP2 C-SH2 domain E139D = molecular target: SHP2 C-SH2 domain E139D
[1] = molecular target: SHP2 C-SH2 domain wild-type
SHP2 N-SH2 domain L43F = molecular target: SHP2 N-SH2 domain L43F
SHP2 N-SH2 domain T42A = molecular target: SHP2 N-SH2 domain T42A
SHP2 N-SH2 domain T52S = molecular target: SHP2 N-SH2 domain T52S
[2] = molecular target: SHP2 N-SH2 domain wild-type
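Note: displayed peptides selected on beads carrying the immobilized SH2 domain, with library peptides lacking any tyrosine serving as negative controls.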

| Binder | enrichment score (SHP2 C-SH2 domain E139D) | enrichment score [1] | enrichment score (SHP2 N-SH2 domain L43F) | enrichment score (SHP2 N-SH2 domain T42A) | enrichment score (SHP2 N-SH2 domain T52S) | enrichment score [2] |
| --- | --- | --- | --- | --- | --- | --- |
| VMTVDYSKTVV [SETD2_Y770] | inactive: 0.845 | inactive: 0.9 | inactive: 0.786 | inactive: 1.49 | inactive: 0.807 | inactive: 0.883 |
| TVETKYDNISR [SETDB2_Y477] | inactive: 0.685 | inactive: 0.582 | inactive: 0.721 | inactive: 0.817 | inactive: 0.804 | inactive: 0.784 |
| TMETKYDNISR [SETDB2_Y477_V473M] | inactive: 0.666 | inactive: 0.743 | inactive: 0.652 | inactive: 0.644 | inactive: 0.689 | inactive: 0.535 |
| TGEDWYVLVRV [SF3B3_Y904_G908R] | inactive: 0.583 | inactive: 0.875 | inactive: 0.595 | inactive: 0.663 | inactive: 0.594 | inactive: 0.992 |
| SARSAYQEAMD [SFN_Y151] | inactive: 0.721 | inactive: 0.635 | inactive: 0.601 | inactive: 0.579 | inactive: 0.533 | inactive: 0.724 |
| SARSAYQEAID [SFN_Y151_M155I] | inactive: 0.577 | inactive: 0.502 | inactive: 0.642 | inactive: 0.575 | inactive: 0.837 | inactive: 0.894 |
| RQEEEYKRLSE [SFSWAP_Y133] | inactive: 0.277 | inactive: 0.821 | inactive: 0.681 | inactive: 0.302 | inactive: 0.828 | inactive: 0.662 |
| RQEEEYKRFSE [SFSWAP_Y133_L136F] | inactive: 0.819 | inactive: 0.775 | inactive: 0.813 | inactive: 0.574 | inactive: 0.861 | inactive: 0.99 |
| DPTNTYARPAE [SGMS2_Y24] | inactive: 0.5 | inactive: 0.572 | inactive: 0.809 | inactive: 0.453 | inactive: 0.782 | inactive: 0.623 |
| KKYPDYIQIAM [SGMS2_Y59] | inactive: 1.82 | inactive: 1.6 | inactive: 1.66 | inactive: 1.88 | inactive: 1.65 | inactive: 2.04 |
| KKYPDYIQSAM [SGMS2_Y59_I62S] | inactive: 1.06 | inactive: 1.4 | inactive: 1.05 | inactive: 0.879 | inactive: 0.991 | inactive: 0.724 |
| KKYPDYIQIAR [SGMS2_Y59_M64R] | inactive: 1.21 | inactive: 1.3 | inactive: 1.21 | inactive: 1.04 | inactive: 1.17 | inactive: 1.39 |
| KKFPDYIQIAR [SGMS2_Y59_M64R_YF] | inactive: 1.39 | inactive: 1.16 | inactive: 1.25 | inactive: 1.11 | inactive: 1.22 | inactive: 1.23 |
| HQNGMYGLHQD [SGSH_Y89] | inactive: 0.907 | inactive: 0.77 | inactive: 0.89 | inactive: 0.688 | inactive: 0.643 | inactive: 0.665 |
| HQNGMYRLHQD [SGSH_Y89_G90R] | inactive: 0.93 | inactive: 0.916 | inactive: 0.737 | inactive: 0.733 | inactive: 0.854 | inactive: 0.84 |
| HQNGTYGLHQD [SGSH_Y89_M88T] | inactive: 0.698 | inactive: 0.828 | inactive: 0.604 | inactive: 0.545 | inactive: 0.57 | inactive: 0.758 |
| VVLVSYVPFSQ [SH2B1_Y624_S627F] | inactive: 2.48 | inactive: 3.13 | inactive: 2.77 | inactive: 2.57 | inactive: 2.56 | inactive: 2.82 |
| GLDGSYLLRDS [SH2D1A_Y29] | inactive: 0.525 | inactive: 0.55 | inactive: 0.754 | inactive: 0.545 | inactive: 0.698 | inactive: 0.779 |
| GLDGRYLLRDS [SH2D1A_Y29_S28R] | inactive: 0.963 | inactive: 0.76 | inactive: 0.739 | inactive: 0.815 | inactive: 0.72 | inactive: 0.981 |

| Binder | enrichment score (SHP2 C-SH2 domain E139D) | enrichment score [1] | enrichment score (SHP2 N-SH2 domain L43F) | enrichment score (SHP2 N-SH2 domain T42A) | enrichment score (SHP2 N-SH2 domain T52S) | enrichment score [2] |
| --- | --- | --- | --- | --- | --- | --- |
| DAVAVYHGKIS [SH2D1A_Y7] | inactive: 0.678 | inactive: 0.761 | inactive: 0.795 | inactive: 0.648 | inactive: 0.607 | inactive: 0.742 |
| NSNSDYVDVLP [SH2D1B_Y127] | inactive: 0.512 | inactive: 0.658 | inactive: 0.568 | inactive: 0.51 | inactive: 0.83 | inactive: 0.892 |
| KSNSDYVDVLP [SH2D1B_Y127_N122K] | inactive: 0.648 | inactive: 0.585 | inactive: 0.777 | inactive: 0.578 | inactive: 0.74 | inactive: 0.699 |
| STEAIYRRYSK [SH3PXD2B_Y42] | inactive: 0.47 | inactive: 0.399 | inactive: 0.295 | inactive: 0.42 | inactive: 0.463 | inactive: 0.426 |
| STEAIYWRYSK [SH3PXD2B_Y42_R43W] | inactive: 0.72 | inactive: 0.691 | inactive: 0.61 | inactive: 0.622 | inactive: 0.582 | inactive: 0.832 |
| AIFWRYSKFFD [SH3PXD2B_Y45_R43W_YF] | inactive: 2.96 | inactive: 2.4 | inactive: 2.27 | inactive: 2.3 | inactive: 2.26 | inactive: 2.39 |
| AIFRRYSKFFD [SH3PXD2B_Y45_YF] | inactive: 0.233 | inactive: 0.207 | inactive: 0.232 | inactive: 0.306 | inactive: 0.368 | inactive: 0.268 |
| RPSGRYPVARR [SHANK3_Y1569] | inactive: 0.248 | inactive: 0.232 | inactive: 0.284 | inactive: 0.333 | inactive: 0.15 | inactive: 0.294 |
| RPGGRYPVARR [SHANK3_Y1569_S1566G] | inactive: 0.175 | inactive: 0.202 | inactive: 0.227 | inactive: 0.201 | inactive: 0.154 | inactive: 0.225 |
| KGIQLYDTPYE [SHB_Y297] | inactive: 1.4 | inactive: 1.26 | inactive: 1.36 | inactive: 1.34 | inactive: 1.59 | inactive: 1.27 |
| KGIQLYDTPFE [SHB_Y297_YF] | inactive: 1.28 | inactive: 1.15 | inactive: 1.31 | inactive: 1.17 | inactive: 1.1 | inactive: 1.26 |
| AKKVFYVNETR [SHH_Y253_I255N] | inactive: 0.946 | inactive: 1.19 | inactive: 1.21 | inactive: 0.991 | inactive: 0.805 | inactive: 1.2 |
| PGQRVYVVAER [SHH_Y316] | inactive: 1.05 | inactive: 0.915 | inactive: 0.893 | inactive: 0.795 | inactive: 0.851 | inactive: 1.01 |
| PGQRVYVVAES [SHH_Y316_R321S] | inactive: 0.71 | inactive: 0.855 | inactive: 0.944 | inactive: 0.926 | inactive: 0.758 | inactive: 0.825 |
| LCRYGYANTSE [SI_Y1233] | inactive: 1.06 | inactive: 0.775 | inactive: 0.648 | inactive: 0.61 | inactive: 0.887 | inactive: 0.889 |
| LCRFGYANTSE [SI_Y1233_YF] | inactive: 0.89 | inactive: 0.834 | inactive: 0.693 | inactive: 0.66 | inactive: 0.83 | inactive: 0.781 |
| ALVFLYFCIIF [SIGLEC12_Y494] | inactive: 1.14 | inactive: 0.778 | inactive: 0.636 | inactive: 0.877 | inactive: 1.18 | inactive: 0.695 |
| AIGYEYSEINI [SIGLEC12_Y588] | inactive: 0.901 | inactive: 1.39 | active: 3.66 | active: 13.5 | active: 4.08 | inactive: 1.36 |
